Experimental data reported in ChEMBL document CHEMBL4888484, “Replenishing the malaria drug discovery pipeline: Screening and hit evaluation of the MMV Hit Generation Library 1 (HGL1) against asexual blood stage Plasmodium falciparum ,using a nano luciferase reporter read-out” (2022).
Values joined by “and” are separate entries in the source; they are usually repeats but may differ in a detail not shown here. Equal entries are not always repeated. Out of some 150,000 compounds screened, about 540 (0.36%) showed an effect of 50% or more. Some of the results follow.

Tested on: Plasmodium falciparum
Assay: Primary screen in NF54 nanoGlo assay, in single point, at 2uM, 72h; a lower Z score goes with more inhibition
Assay type: functional, Erythrocyte
Conditions: timepoint 72 hour

Structure (SMILES)	% Inhibition	Z score	% Inhibition (2 µM)
Fc1cccc(-c2cc(CN[C@H]3CCCOC3)on2)c1	-5%	1.04	
c1ccc(-c2cc(NC3CCCCC3)[nH]n2)cc1	-35%	4.12	
CNC(=O)c1cccc(C(=O)[C@H](C#N)c2nc(C)cc(C)n2)c1	-11%	1.51	
Cc1cc(C)c(NC(=O)c2cc(-c3cc(C)oc3C)nc3onc(C)c23)c(C)c1	-14%	2.61	
Cc1cc(S(=O)(=O)N(C)C)c(Br)cc1Br	-2%	0.32	
COc1ccc(CNC2CCOC3(CCOC3)C2)cc1Br (stereo unspecified)	0%	-0.03	
CN1CCN(Cc2cnc(-c3cccs3)s2)C(C)(C)C1=O	-10%	1.88	
Cc1nc2ncc(-c3cnn(CCC(C)C)c3)cn2n1	-4%	0.82	
CN(CCc1ccncc1)Cc1cscn1	-2%	0.29	
CC1=NN(CC(C)C)C(=O)[C@H]1C(=O)Nc1nccs1	3%	-0.41	
O=C(Nc1nc2c(s1)CN(Cc1ccccc1)CC2)c1ccc(Oc2ccccc2)cc1	-2%	0.25	
CCCn1cc(-c2ccncc2)cc1C(=O)NCCOC	-8%	0.89	
Cc1nc(-c2ccnc(N3CCCC3)c2)no1	4%	-0.59	
Cn1nc(CN2CCc3ccc(C(F)(F)F)cc3C2)[nH]c1=O	-5%	0.71	
CC(=O)N[C@@H](C)c1nc(C2CCOCC2)nn1-c1cnc2ccccc2n1	-1%	0.14	
CCn1nc(NC(=O)c2cc(-c3cnn(C)c3)nc3onc(C)c23)cc1C	18%	-2.05	
OCC[C@H]1CN(Cc2cccc3cnccc23)CCN1Cc1ccc(F)c(F)c1	-3%	0.5	
COc1ccc(-c2cc(-c3ccccc3)c(C#N)c(N)c2C#N)cc1	6%	-0.74	
COc1ccc([C@@H]2CCCN2C(=O)Nc2cccc3cccnc23)cc1OC	-9%	1.3	

Structure (SMILES)	% Inhibition	Z score	% Inhibition (2 µM)
Cc1cc(N(C)C)nc(N2CCN(C(=O)CCC3CCCCC3)CC2)n1	0%	-0.04	
Cc1noc([C@H](C)N(C)Cc2cn3ccccc3n2)n1	-19%	2.04	
CCn1c2c(c(=O)n3ncc(C(=O)Nc4cc(Cl)ccc4C)c13)CNCC2	7%	-0.96	
CCn1cnnc1CN(C)C(=O)C1(c2ccccc2)CCCC1	-4%	0.74	
C[C@@H](Cc1ccsc1)N(C)S(=O)(=O)N(C)C	-3%	0.45	
CCC[C@H](C)C(=O)Nc1c(C)cccc1C	-3%	0.33	
COc1ccc(C(=O)N(Cc2cccs2)c2ccccn2)cc1Cl	-3%	0.41	
COC(=O)CNC(=O)N1CCCCCCN(C)C(=O)[C@@H]2CCC[C@@H]21	-14%	1.75	
Cc1cc(=O)[nH]c(-n2nc(C3CC3)cc2NC(=O)c2ccc(C(C)(C)C)cc2)n1	57%	-4.8	
COc1ccc(C2CN(C(=O)CC(C)C)CC2C(=O)N2CCCC2)c(OC)c1 (stereo unspecified)	-10%	1.55	
Cc1cccc(C(=O)N2CC[S+]([O-])CC(C)C2)n1 (stereo unspecified)	-2%	0.28	
O=C(NCCCN1CCOCC1)c1csc(-c2ccco2)n1	0%	0.03	
Cc1n[nH]c(C2CC2)c1C(=O)N[C@H](c1cccnc1)C(C)C	-16%	1.89	
Cc1noc(COCC(=O)Nc2ncc(Cc3ccccc3)s2)n1	-7%	1.03	
COCc1nc([C@H](N)c2ccc(OC)cc2)n[nH]1			-7% and -1%
N#Cc1cccc(S(=O)(=O)N2CCc3nc(-c4ccc(Cl)cc4)ncc3C2)c1	-4%	0.6	
Cn1ccc(C(=O)N2CCN(Cc3ccccc3)[C@@H]3CS(=O)(=O)C[C@@H]32)n1	0%	0.01	
O=C(CCc1ccccc1)OCCN1CCCC1=O	4%	-0.46	
O=C(NC1CCOC1c1ccc(F)c(F)c1)N1CCC[C@@H]1CO (stereo partly specified)	-7%	0.98	

Structure (SMILES)	% Inhibition	Z score	% Inhibition (2 µM)
CC[C@H]1COCCN1C(=O)c1cnn(-c2ccncc2)c1	10%	-1.31	
COCC(O)CNC(C)c1cc2cc(Cl)ccc2o1 (stereo unspecified)	3%	-0.53	
CC(C)(NC(=O)C1CCCCC1)c1nc2c(c(C(N)=O)n1)OCCO2	-7%	0.99	
CN(CCc1nc(-c2c[nH]c3ccccc23)nn1C)[C@H]1CCS(=O)(=O)C1	-13%	1.33	
CCCn1nc(C(=O)O)c2c1CC[C@H](N(C)Cc1ccno1)C2	5%	-0.73	
Cc1ccc(C)c(C2CN(CCN3C(=O)CCC3=O)C(C)CO2)c1 (stereo unspecified)	2%	-0.19	
Cc1csc2c(NC3CCOC4(CCOC4)C3)ncnc12 (stereo unspecified)	-8%	0.81	
COc1ccc(-c2nn(-c3ccc(C(F)(F)F)cc3)c(N)c2NC(=O)NCCc2ccccc2OC)cc1	-6%	0.92	
C#CCN(Cc1ccco1)C(=O)N[C@H]1CCN(c2cc(Cl)ccc2OC)C1	-6%	0.6	
Fc1cccc(F)c1Cn1cc(COCc2ccccc2)nn1	-2%	0.29	
O=C(CCN1CCN(c2ccccc2)CC1)Nc1cccc2nonc12	-5%	0.54	
CC(C(=O)Nc1ccc(F)c(F)c1F)(C(F)(F)F)C(F)(F)F	-10%	1.24	
CCOc1cccc(COC(=O)c2oc(C)nc2C)n1	35%	-3.99	
C[C@H](NS(C)(=O)=O)c1ccc(Cl)cc1	-6%	0.94	
O=C1C2CCCCC2C(=O)N1CC(O)c1ccccc1 (stereo unspecified)	2%	-0.38	
CC(C)C[C@H](CNC(=O)c1cncn1C)CC(=O)OC1CCOC1 (stereo partly specified)	-4%	0.68	
Cc1cnc(C(=O)Nc2ccncc2)cn1	-8%	1.24	
O=C(Cn1cccc1-c1nc(-c2ccc3c(c2)OCO3)no1)Nc1ccc(F)c(F)c1	-20%	2.8	
